According to PubChem BioAssay AID652104 (National Center for Advancing Translational Sciences (NCATS), 2013):
About 7,200 (1.8%) of roughly 410,000 compounds were called active. The inconclusive results got no clear call from the source; some entries with a clear call stand among them for comparison. Calls come from the whole dose curve; as a rule, active = well fitted activation curve with a large enough effect; inconclusive = small, poorly fitted or top-dose-only effect, or another doubt; inactive = no such curve, though single readings can be large or run the other way. No potency is given beside an inconclusive call; the fits are too rough.

Assay: qHTS of TDP-43 Inhibitors; note: nearly all actives have a fitted effect of over 50% in size; for growth rescue (activation): % of control where 0% means no effect
Conditions: TDP-43 expressing yeast growth rescue, BacTiter-Glo, 24 h; growth rescue (activation): at 46.1 µM (top of the series) unless noted
In short: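 Luminescence from BacTiter-Glo reports growth of TDP-43-expressing yeast after 24 hr at 30 deg C with compound. Cells were raffinose-pregrown to mid-log, then seeded in galactose medium at OD600=0.02.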
Potency is the fitted concentration of half-maximal effect; tags give direction and shape of the fitted curve.

| SMILES | Potency | growth rescue (activation) |
| --- | --- | --- |
| COc1ccc(C(C(=O)NC2CCCC2)n2c(CSCCOc3ccccc3)nc3ccccc32)cc1 (stereo unspecified) | inactive | – |
| Cc1ccc(C)c(NC(=O)Cc2coc3cc4c(cc23)CCC4)c1 | inconclusive [activator, partial curve] | – |
| COc1cc(OC)cc(C(=O)NCCc2csc(-c3ccc(C(F)(F)F)cc3)n2)c1 | active: 17.8 µM | – |
| CN(C)C(=O)CSc1ccc(S(=O)(=O)N2CCCC2)cn1 | inconclusive [activator, partial curve] | – |
| CCOC(=O)C(=Cc1cc(=O)c(OC)co1)C(=O)OCC | active: 12.6 µM | – |
| CC(C)Cc1cc(C(=O)Nc2ccc(F)cc2F)no1 | inconclusive [activator, partial curve] | – |
| CN1C(C(=O)N2CCc3ccccc3C2)=CC(c2ccc(F)cc2)=NS1(=O)=O | active: 12.6 µM | – |
| CCOc1c(Br)cc(/C=C2\C(=O)N(CCC#N)N=C2C)cc1OC | inactive | – |
| Oc1ccccc1C1SC(c2ccccc2O)SC(c2ccccc2O)S1 (stereo unspecified) | inconclusive [activator, single point] | – |
| Cc1cccc(Nc2nc(-c3ccncc3)cs2)c1 | inconclusive [activator, single point] | – |
| COc1cccc(CN(C(=O)c2oc3ccccc3c2C)C2CCS(=O)(=O)C2)c1 (stereo unspecified) | inconclusive [activator, full curve, poor fit] | – |
| COc1ccc(S(=O)(=O)NC(=O)C2(C)CCN2C(=O)C(C)(C)c2ccccc2)cc1 (stereo unspecified) | active: 14.1 µM | – |
| COc1ccc(-c2noc(CSc3nc4ccccc4[nH]3)n2)cc1 | active: 11.2 µM | – |
| Cc1cccc[n+]1CC(=O)c1ccccc1 | inconclusive [activator, single point] | – |
| O=C(NCCc1ccc(Cl)cc1)C(=O)NCC(c1cccs1)S(=O)(=O)c1ccccc1 (stereo unspecified) | inactive | – |
| COC(=O)c1cc2sc(C)cc2n1Cc1nc(-c2ccc(C)cc2)oc1C | inactive | – |
| Cc1cc2n(n1)CCC(=O)N2Cc1ccc(C(=O)Nc2cccc(C(F)(F)F)c2)cc1 | inactive | – |
| CN(C)S(=O)(=O)c1cccc(NC(=O)c2cc([N+](=O)[O-])ccc2N2CCCCC2)c1 | inconclusive [activator, partial curve] | – |
| COc1cc(NS(=O)(=O)c2ccc(-c3cc(C)no3)cc2)cc(OC)c1 | inconclusive [activator, partial curve] | – |
| COc1ccc(-c2cc(-c3ccccc3)nc3ncnn23)cc1 | active: 14.1 µM | – |
| O=C(CN1CCN(Cc2ccccc2Cl)C1=O)NCCc1ccc(Cl)cc1 | inconclusive [activator, partial curve] | – |
| COC(=O)C1=C(C)N(Cc2ccccc2)C(=S)N[C@H]1c1ccccc1 | active: 12.6 µM | – |
| O=C(Nc1ccc2c(c1)OCCO2)C(C1CC1)n1c(=O)c(-c2ccccc2)nc2ccccc21 (stereo unspecified) | inconclusive [activator, partial curve] | – |

| SMILES | Potency | growth rescue (activation) |
| --- | --- | --- |
| O=C(/C=C/c1cccs1)c1cc(Br)ccc1OC(=O)N1CCOCC1 | inconclusive [activator, single point] | – |
| COc1ccccc1-c1nc2cc(NC(=O)c3ccccc3Cl)ccc2o1 | inconclusive [activator, full curve, poor fit] | – |
| COc1cccc(CNC(=O)CCC2CCCN(C(=O)c3ccc(OC)o3)C2)c1 (stereo unspecified) | inactive | – |
| CCOc1ccc(C(=O)Nc2ccc3c(c2)OCCO3)cc1Br | active: 17.8 µM | – |
| COc1cc(-c2ccc3c(=O)c4ccccc4n(C)c3c2)cc(OC)c1OC | inactive | – |
| Cc1nc2ccc([N+](=O)[O-])cc2c(=O)n1Cc1ccc(F)cc1 | inconclusive [activator, partial curve] | – |
| O=C(c1cn(-c2ccc(Cl)c(Cl)c2)nn1)C1CC1 | active: 8.91 µM | – |
| O=C(Nc1ccc(Cl)cc1)c1cc(S(=O)(=O)NC2CCCCCC2)ccc1F | inconclusive [activator, single point] | – |
| Cc1cc(C(=O)CSc2ccc(F)cc2)cc(C)c1OC(=S)N(C)C | inconclusive [activator, single point] | – |
| Cc1ccc(Sc2ccc(S(=O)(=O)Nc3ccc(C(=O)O)cc3)cc2)cc1C | inconclusive [activator, single point] | – |
| Nc1nc(N)c2sc3nc(C(F)(F)F)cc(C(F)(F)F)c3c2n1 | inconclusive [activator, single point] | – |
| Cn1nccc1C(=O)N1CCN(c2ccc(F)cc2)CC1 | inconclusive [activator, partial curve, poor fit] | – |
| Cc1cccc(CNC(=O)CN2C(=O)CCn3nc(-c4cn(C)c5ccccc45)cc32)c1 | inactive | – |
| CCC(=O)N(CC)C1=C(O)c2ccccc2C(=O)C1=O | – | inconclusive: -93% [activator] |
| CCn1c(Oc2cccc(Br)c2)nc2c1c(=O)n(C)c(=O)n2C | inconclusive [activator, single point] | – |
| COc1ccc(Cn2c(C(=O)O)c(CNC3CCCCC3)c3ccc(C)cc32)cc1 | inactive | – |
| COc1ccccc1NC(=O)c1sc2nc3n(c(=O)c2c1C)N=C(c1cccc(Br)c1)CS3 | inconclusive [activator, partial curve] | – |
| NS(=O)(=O)c1cccnc1Nc1cccc(Cl)c1Cl | inconclusive [activator, single point] | – |
| Cc1cc(C)n(S(=O)(=O)c2ccc(Cl)cc2)n1 | inactive | – |
| O=C(O)c1ccc(-n2ncc(Cl)c(Cl)c2=O)cc1 | inactive | – |
| CCOC(=O)Nc1sc2c(c1C#N)CCCC2 | inconclusive [activator, single point] | – |
| CCN(c1ccccc1)S(=O)(=O)c1ccc(NC(=O)c2nc(SC(C)C)ncc2Cl)cc1 | inactive | – |
| Cc1c(O)cccc1C(=O)N[C@@H](CSc1ccccc1)[C@H](O)CN1C[C@H]2CCCC[C@H]2C[C@H]1C(=O)NC(C)(C)C | inconclusive [activator, full curve] | – |
